First the molecules themselves.
B1: LINE1-mini (parent)
chain: GGCAGAGCUCAACACAGCGUGGCAAAGUGGCUGUGGCUAGACUGCC

Among the data in the RNAGym collection of RNA variant scans (doi:10.7554/elife.90254) are self-cleavage values, retold here.

The source gives no read counts; variants with many changes may rest on few reads.

In this series the parent is B1. In words: self-cleavage, relative activity (ratio to wild type); higher = more cleavage; in vitro, sequencing; the parent is a self-cleaving ribozyme.
GGCAGAGCUCAGCACAGCGUGGUAAAGUGGCUGUGGCUAGACUGGA: the self-cleavage was 0.04. The result for GGCAGAGCUCAGCACAGCAUGACAAAGUGGCUGUGGCUAGACUGCC reads 0.02; that for GGCAGAGCUCAGCACACAGUGGCAAAGUGGCUGUGGCUAGGCUGCU, 0.01; that for GGCAGAGCUCAGCACAGCGUGGCAAAGUGGUUGUGGUUAGACUGCC, 0.11.

With GGCAGAGCUCAGCACAACGUGGCAAAGUUGCUGUGGCUAGACUGCC, the self-cleavage was 0.07.

Turning to GGCAGAGCUCAUCACCGCGUGGAAAAGUGGCUUUGGCUAGACUGCC, the self-cleavage amounted to 0.01. The result for GGCAGAGCUCAUCACGGCGCGGCGACGUGGCUGUGGUUAGACUGCC reads 0.01; that for GGCAGAGCUCAGCACAGCGAGGCAAAGUGGCUCUGGCUAGACUGCC, 0.02. The result for GGCAGAGCUCAGCACAGCGUGGCAAAGUGGCUGGGGCUAGACUGCG reads 0.03. The result for GGCAGAGCUCAGCACAGCGUGGCAAAGUGGCUGUGCCUAGACCGCC reads 0.01.

Turning to GGCAGAGCUCAUCACCGCAUGGCAAAGAGGCUGUGGCCAGACUGCC, the self-cleavage is 0.02. The result for GGCAGAGCUCAGCACAGCGUGGUACAGUGGCUGUGGCUAGACUGUC reads 0.04; that for GGCAGAGCUCAUCGCAGGGUGGCAAAGUGGCAGUGGCUAGACUGCC, 0.02.

As for GGCAGAGCUCAGCACAGCGUGGCAAAGUGGCUGUGGCUAUACUACC, the self-cleavage is 0.1. The result for GGCAGAGCUCAUCACGGCGUGGCAAAGCGGCUGUGGCUAGACUGCC reads 0.12. The result for GGCAGAGCUCAUCGCAGCGUGGCAAAGUGGCUGUGGCUAGACUGAG reads 0. The result for GGCAGAGCUCAGCACAGCGUGGCAAAGUGGCCGUAGCUAGACUGCC reads 0.02; that for GGCAGAGCUCAGCACAGCGUGGCAAAUUGGCUGUGGCUAAACUGCC, 0.06. For the variant GGCAGAGCUCAUCGCAGCGGGGCAAAGUAGCUGUGGCUAGACUGCC, the self-cleavage came out at 0.11. The result for GGCAGAGCUCAGCACAGCUUGGCAAAUUGGCUGUUGCUAGUCUGCA reads 0.01; that for GGCAGAGCUCAGCACAGCGUGUCAAAGUGGCUAUGGCUAGACUGCC, 0.11. The result for GGCAGAGCUCAGCACAGCGUGGCAAAGUUGCUGUGGCUAGACUACC reads 0.06; that for GGCAGAGCUCAGCACAGCGUUCCAAAGGGGCUUUGGCUAGACUGCC, 0.23. The result for GGCAGAGCUCAGCACAGCGUGGGAAAGUGGCUGUGGCUAGAUUGCC reads 0.03; that for GGCAGAGCUCAGCACAGCUUGGCAAAGUGGCUGUGGCUAGACAGCC, 0.01; that for GGCAGAGCUCAGCACAGCUUGGCAAACUGGCUGUGGCUAGACUGCC, 0.03. Regarding GGCAGAGCUCAGCACAGCGUCGCAAAGUGGCUGUGGGUAGACUGCC, the self-cleavage was 0.03. Take GGCAGAGCUCAGCACAGCGUGACGAAGUGGCUGUAGCUAGACUGCC: the self-cleavage turned out to be 0.02. The result for GGCAGAGCUCAGCACAGCGUGGCAAAGUGGCUGUGGGUAGACUGGC reads 0.09; that for GGCAGAGCUCAGCACAGCUUGGCAAUGUGGCUGUGGCUAGACUGCU, 0.02; that for GGCAGAGCUCAGCACAGCGUUGCAGCGUGGCUGAGGGUAAAUUGCC, 0. The result for GGCAGAGCUCAGCACAGCGUGGCAAAGGGGCUGUGUCUAGACUGCC reads 0.03; that for GGCAGAGCUCAGCACAUCCUGGCAAAGUGGUUCUGGCUAGACUGCC, 0.03; that for GGCAGAGCUCAGCACAGCGUUGCAAAGAGGCUGUGGCUAGACUGCC, 0.02. The result for GGCAGAGCUCAGCACAGCGUGACAACGUGGCUGUGGCUUGACUGCC reads 0.01; that for GGCAGAGCUCAGCACAGCGUGGCAAAGUGGCUGUAGCUGGACUGCC, 0.03; that for GGCAGAGCUCAGCACAGCGUGGCAAAGUGGCUGGGGCUAGUCUGCC, 0.09.

For the variant GGCAGAGCUCAGCACAGCAUGGCAAAGUGGCUGUGGUGAGACUGCC, the self-cleavage turned out to be 0.

For the variant GGCAGAGCUCAGCACAGCGUGGCAAAGUGGCUGUGGGUAGGCUGCC, the self-cleavage is 0.03. The result for GGCAGAGCUCAGCACAGCGUGGCAAAGUGACUGUGGAUAGACUGCC reads 1.34; that for GGCAGAGCUCAGCACAGCGAGGCAAAGUGGCUGUGGCUAGACUGCU, 0.02.

GGCAGAGCUCAUCGCAGCCUGGCAAAGUGGCUGUGGCAAGACUGCC: the self-cleavage is 0.01. The result for GGCAGAGCUCAGCACAACGUGGCAAAGUGGAUUUGGCUAGACUGCC reads 0.07. On to GGCAGAGCUCAUCUCAGCAUGGCAAAGUACCUGUGGCUAGACUGCC, for which the self-cleavage is 0.07. With GGCAGAGCUCAGCACAGCGUGGCAAACUCGCUGUGGCUAGACUGAC, the self-cleavage is 0. The result for GGCAGAGCUCAUCCCGGCGUGGCAAAGUGGCUGUGGCUAGACUGCC reads 0.03; that for GGCAGAGCUCAGCACAGCGUGGCAAAGUGCCUUUGGCUAGAAUCCC, 0.05.

Take GGCAGAGCUCAGCACAGCGUGGCAAAGUGUCUGUGGCUAGACUGGC: the self-cleavage is 0.04. The result for GGCAGAGCUCAGCACAUCGUGGGAAAGUGGCUGUGGCUAGCCUGCC reads 0.02.

For the variant GGCAGAGCUCAGCACAGCGUGGGAAAGAGGCUGUGACUAGACUGCC, the self-cleavage is 0.01. The result for GGCAGAGCUCAGCACAGCGUGGCAAACUGGCUGUGGCUAGACUUCA reads 0.02. The result for GGCAGAGCUCAUCACUGCGUGGUAAAGUGUCUGCGGCUAGACUGGC reads 0.05; that for GGCAGAGCUCAGCACAAAGUGACAAAGUGGCUGUGGCUAAACUGCC, 0.02; that for GGCAGAGCUCAGCACAGCGUGGCAAAUUGGCUGAGGCUAGACUGCC, 0.03.

Take GGCAGAGCUCAGCACAGCAUGGCAAAGUGGCUGUUGCUAGACUGCC: the self-cleavage amounted to 0.01. The result for GGCAGAGCUCAGCACAGCAUGGCAAAGUGGCGUUGGCUAGAAUGCC reads 0.13.
